Hit rate of the full screen: of about 50,000 compounds, about 800 (1.6%) showed an effect of 50% or more. The list shows a part of the results.

This assay deals with Bcl-2-like protein 10 (Homo sapiens) (UniProt Q9HD36). The assay is described as follows: TR3 peptide-Bcl-B binding displacers, biochemical primary FP assay, phenotype converters (AID 1240).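 Note: 0% = Bcl-B with tracer peptide and DMSO and 100% = tracer peptide lacking Bcl-B.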 As to conditions: GST-Bcl-B / FITC-TR3 peptide fluorescence polarization; stronger effect = higher value; compound at 3.75 mg/L.
Chain of UniProt Q9HD36 (Q9HD36 whole entry, looked up): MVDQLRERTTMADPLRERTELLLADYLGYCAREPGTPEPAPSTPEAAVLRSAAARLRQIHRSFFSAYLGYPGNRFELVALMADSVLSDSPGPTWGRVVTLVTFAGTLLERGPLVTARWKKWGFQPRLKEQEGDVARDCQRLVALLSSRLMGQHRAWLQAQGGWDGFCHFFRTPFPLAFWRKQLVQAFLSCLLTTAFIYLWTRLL
Regarding `Cc1ccc(C2=C/C(=C\c3ccc(C)c([N+](=O)[O-])c3)C(=O)O2)cc1`, the displacement turned out to be 9%.
Consider `Oc1ccc(NC(=S)N=Nc2c(O)[nH]c3ccc(Br)cc23)cc1`, for which the displacement stood at 11.6%.
Regarding `Cc1ccc(N=Cc2cccc(C)c2O)c(O)c1`, the displacement was 4.8%.
For `O=C(Nc1cccc2ccccc12)c1ccc(-c2cccc([N+](=O)[O-])c2)o1`, the displacement stood at 12%.
`CCCCOC(=O)c1ccc(NC(=O)CSc2ccccn2)cc1`: the displacement was -19.3%.
Next, `O=C(CSc1ncn(-c2ccccc2)n1)c1ccc(Cl)cc1`: 13.1%; `COc1ccc(C(=O)N2CCN(Cc3ccc(SC)cc3)CC2)cc1`: -7.7%; `CCCC(=O)Nc1ccc(NC(=O)c2ccc(C)c([N+](=O)[O-])c2)cc1`: 9.9%.
As for `O=C(CCN1C(=O)/C(=C\c2cccs2)SC1=S)Nc1cccc(C(=O)O)c1`, the figure is 34.9%.
As for `CCOC(=O)c1ccc(NC(=O)CC)cc1`, the displacement amounted to 4.7%.
On to `O=C(Nc1ccc(NC(=S)NC(=O)c2ccco2)cc1)c1cccc(Cl)c1`, for which the displacement came to 13.6%.
As for `O=C(/C=C/c1ccccc1)Nc1ccc(Cl)cn1`, the displacement is 16.2%.
As to `O=C(CCSCc1ccc([N+](=O)[O-])cc1)OCC(=O)c1ccccc1`, the displacement is -2.3%.
`CC1CCC(N2CCN(C(=O)c3ccc(F)cc3)CC2)CC1` (stereo not drawn): the displacement came to 9.5%.
In the case of `O=C1C2C(c3ccccc3)OC3(C(=O)c4ccccc4C3=O)C2C(=O)N1c1ccc([N+](=O)[O-])cc1` (stereo not drawn), the displacement was 10.3%.
On to `O=C(N/N=C/c1ccc(Cl)c(Cl)c1)C1CC(=O)N(c2ccccc2)C1` (stereo not drawn), for which the displacement was -9.3%.
`CCCCOc1ccc(NC(=O)CSc2nnc(C)s2)cc1`: the displacement was -8.6%.
As for `O=C1c2ccccc2NC(c2cccc(O)c2)N1c1ccc(Cl)cc1` (stereo not drawn), the figure is 14.9%; as for `Cc1ccc(Nc2nc(Nc3cccc([N+](=O)[O-])c3)nc(SC(=S)N3CCOCC3)n2)cc1`, 7.1%; as for `Cc1ccc(C)c(-c2csc(NC(=O)c3cccs3)n2)c1`, -8.9%.
For the compound `Cc1c(NC(=O)c2cc3nc(-c4ccc(Cl)cc4)cc(C(F)(F)F)n3n2)c(=O)n(-c2ccccc2)n1C`, the displacement is 10.5%.
Next, `COc1c(Cl)ccc(Cl)c1C(=O)NCCc1ccccc1`: -18.4%; `COC(=O)c1c(-c2ccc(F)cc2)csc1NC(=O)C1CC=CCC1C(=O)O` (stereo not drawn): -2.9%; `CCOc1ccccc1NC1=C(Cl)C(=O)N(c2ccc(Cl)cc2)C1=O`: 14.9%.
Take `CC(C)(C)c1ccc(/C=N/NC(=O)c2ccc(Cl)cc2O)cc1`: the displacement was determined as 7.3%.
As for `Cc1noc(NS(=O)(=O)c2ccc(NC(=O)c3ccc(Cl)s3)cc2)c1C`, the figure is -8.8%; as for `CCn1c2ccccc2c2cc(C=Nc3ccccc3C(N)=O)ccc21`, -8.4%; as for `O=C(Nc1c(C(=O)N2CCCC2)cnn1-c1ccccc1)c1cccc(F)c1`, 3.5%.
With `CCc1ccccc1NC(=O)c1c(NC(=O)c2ccco2)sc2c1CCCC2`, the displacement was -0.5%.
With `Cc1ccc(-c2csc(NC(=O)C3CCCCC3C(=O)O)n2)c(C)c1` (stereo not drawn), the displacement came out at 3.8%.
For the compound `Cn1c(=O)c2c(nc3cc(-c4ccccc4)cc(-c4ccccc4)n32)n(C)c1=O`, the displacement is 5.9%.
As for `O=C(Nc1ncc(Cc2cccc([N+](=O)[O-])c2)s1)c1ccc(Br)cc1`, the displacement was 13.6%.
With `COc1cc(/C=C(\C#N)c2nc3ccc(C)cc3[nH]2)cc(OC)c1O`, the displacement is -65.6%.
With `Cc1cccc(N2C(=O)Cn3c2nc2c3c(=O)n(C)c(=O)n2C)c1`, the displacement was -5.8%.
As for `CCCCOC(=O)c1ccc2c(c1)C1C=CCC1C(c1cccc([N+](=O)[O-])c1)N2` (stereo not drawn), the figure is -2.5%; as for `COC(=O)CN1C(=O)C(=O)c2ccccc21`, -4.5%; as for `O=C(c1ccccc1F)N1CCN(c2cccc(Cl)c2)CC1`, 6.5%.
Regarding `Cc1ccccc1C=Nc1ccc(O)cc1`, the displacement is -0.9%.
As to `S=C(NCCSCc1ccccc1Cl)Nc1ccccc1`, the displacement was 0.1%.
As for `COc1ccc(/C(N)=N/OC(=O)COc2ccccc2C)cc1`, the displacement was determined as 4.7%.
As for `COc1cccc(C(=O)N2CCN(C(=O)c3cccc(Cl)c3)CC2)c1`, the displacement was -4.6%.
Take `O=C(NCCCCNc1ccc(C(F)(F)F)cc1[N+](=O)[O-])c1ccc(Cl)cc1`: the displacement is -6.4%.
Next, `O=C1OC(c2ccc(Br)cc2)=N/C1=C/c1ccc(Cl)cc1Cl`: -5.4%; `Cc1cc(C)cc(C(=O)Nc2nnc(C)s2)c1`: 14.6%; `O=C(N/N=C/c1ccc(OC(=O)c2ccc([N+](=O)[O-])cc2)cc1)c1cccnc1`: 6.3%.
Consider `Cc1cccc(-c2nc3cc(NC(=O)Cc4ccccc4)ccc3o2)c1`, for which the displacement was 4.5%.
On to `COC(=O)c1cc(C(=O)N2CCN(Cc3ccccc3)CC2)cc([N+](=O)[O-])c1`, for which the displacement was found to be 4.8%.
Take `Cc1ccc(-c2nc(-c3cc4cc([N+](=O)[O-])cc(Br)c4oc3=O)cs2)c(C)c1`: the displacement is 95.2%.
Next, `O=C(Nc1cccc2c1CCCC2)c1cccc([N+](=O)[O-])c1`: -5.1%.
In the case of `O=C(CSc1ncn[nH]1)Nc1ccccc1Br`, the displacement was -0.1%.
As to `COc1cccc(C(=O)Nc2cccc3ccccc23)c1`, the displacement is -9.7%.
On to `Cc1ccc(C(=O)NNC(=O)c2ccccc2C)cc1`, for which the displacement is -13.9%.
For `Cc1ccc(/C(O)=C2/C(=O)C(=O)N(CCCn3ccnc3)C2c2ccc([N+](=O)[O-])cc2)cc1` (stereo not drawn), the displacement is -21.4%.
For `CC(=O)Nc1nc(C)c(-c2csc(Nc3ncccn3)n2)s1`, the displacement was determined as 9.9%.
Regarding `CC(=O)Oc1ccc(C(=O)Nc2cc(Cl)ccc2C(=O)O)cc1`, the displacement is -10.9%.
As for `O=C1S/C(=C\c2ccc(Br)o2)C(=O)N1c1ccc(Cl)cc1`, the figure is 88.9%; as for `COc1ccc2c(c1)N(C(N)=S)C(C)(C)C=C2C`, -0.3%; as for `O=C(NC(Cc1ccc(O)cc1)C(=O)O)/C(=C/c1ccccc1)NC(=O)c1ccccc1` (stereo not drawn), 14%.
Turning to `NS(=O)(=O)c1ccc(CNC2CC(=O)N(c3ccc(I)cc3)C2=O)cc1` (stereo not drawn), the displacement was -1.7%.
In the case of `COC(=O)c1c(NC(=O)/C=C/C(=O)O)sc(C)c1-c1ccc(C)cc1`, the displacement was -2.7%.
Next, `O=C(NCc1ccccc1)c1nn2c(c1Cl)NC(c1ccc(Cl)cc1)CC2C(F)(F)F` (stereo not drawn): 1.1%; `COc1ccc(CC(=O)NNC(C)=O)cc1OC`: 6.6%.
For the compound `COc1cccc(CN2CCN(C(=O)c3ccccc3OC)CC2)c1`, the displacement was -15.8%.
As to `O=C(NC(Cc1ccc(OC(=O)OCc2ccccc2)cc1)C(=O)O)OCc1ccccc1` (stereo not drawn), the displacement was -3.3%.
As for `O=C(Nc1nc(-c2cccc3ccccc23)cs1)c1ccc(Cl)cc1`, the displacement was -3.4%.
On to `O=C(/C=C/c1ccccc1Cl)c1c(-c2ccccc2)c2cc(Cl)ccc2[nH]c1=O`, for which the displacement was -1.6%.
In the case of `CC(=O)c1ccc(NC(=O)/C=C/c2ccc(C(C)C)cc2)cc1`, the displacement was -0.2%.
For the compound `COC(=O)C(C)Oc1ccc2c3c(c(=O)oc2c1)CCC3` (stereo not drawn), the displacement was 6.3%.

For the origin of these results see PubChem BioAssay AID1240 (Sanford-Burnham Center for Chemical Genomics, 2008).
